According to paper PMC12749008:
These are yes or no findings as the source states them, for the method shown. Binding seen in cells or lysates may run through a third protein. Some binding calls cover weakened binding; strength is not graded here. Values belong to the molecule of their own block, whether it stands above or below them.

Sequences of proteins named here, by UniProt entry; tags and fusion partners are left off. A change or cut given only in a name is not applied to a line headed by its entry.
UniProt Q9UHY1: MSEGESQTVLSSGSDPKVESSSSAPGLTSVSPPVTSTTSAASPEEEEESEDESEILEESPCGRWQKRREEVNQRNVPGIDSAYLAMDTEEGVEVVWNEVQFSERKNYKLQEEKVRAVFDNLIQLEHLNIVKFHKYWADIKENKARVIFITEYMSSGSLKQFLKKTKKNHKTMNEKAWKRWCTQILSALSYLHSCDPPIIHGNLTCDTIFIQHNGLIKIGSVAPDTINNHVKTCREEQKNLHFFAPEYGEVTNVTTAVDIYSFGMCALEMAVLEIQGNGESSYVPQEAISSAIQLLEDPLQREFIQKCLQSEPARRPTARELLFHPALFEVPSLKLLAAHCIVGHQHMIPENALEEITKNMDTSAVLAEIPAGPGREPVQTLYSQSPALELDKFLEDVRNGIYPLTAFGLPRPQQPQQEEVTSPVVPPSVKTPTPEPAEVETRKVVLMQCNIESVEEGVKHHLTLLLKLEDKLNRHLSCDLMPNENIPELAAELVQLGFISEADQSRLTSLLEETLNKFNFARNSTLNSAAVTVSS

How the values were obtained:
[1] = molecular target: T1, TRIM24 (Tripartite motif-containing 24) (human (endogenous in MKN74 and NUGC3)) (UniProt O15164); test: co-IP; endogenous proteins; MKN74 and NUGC3 cell lysates incubated overnight at 4 °C with anti-TRIM24 or anti-NRBP1 antibody or control IgG, then 2 h with protein A/G magnetic beads; immunoblot
T1 sequence: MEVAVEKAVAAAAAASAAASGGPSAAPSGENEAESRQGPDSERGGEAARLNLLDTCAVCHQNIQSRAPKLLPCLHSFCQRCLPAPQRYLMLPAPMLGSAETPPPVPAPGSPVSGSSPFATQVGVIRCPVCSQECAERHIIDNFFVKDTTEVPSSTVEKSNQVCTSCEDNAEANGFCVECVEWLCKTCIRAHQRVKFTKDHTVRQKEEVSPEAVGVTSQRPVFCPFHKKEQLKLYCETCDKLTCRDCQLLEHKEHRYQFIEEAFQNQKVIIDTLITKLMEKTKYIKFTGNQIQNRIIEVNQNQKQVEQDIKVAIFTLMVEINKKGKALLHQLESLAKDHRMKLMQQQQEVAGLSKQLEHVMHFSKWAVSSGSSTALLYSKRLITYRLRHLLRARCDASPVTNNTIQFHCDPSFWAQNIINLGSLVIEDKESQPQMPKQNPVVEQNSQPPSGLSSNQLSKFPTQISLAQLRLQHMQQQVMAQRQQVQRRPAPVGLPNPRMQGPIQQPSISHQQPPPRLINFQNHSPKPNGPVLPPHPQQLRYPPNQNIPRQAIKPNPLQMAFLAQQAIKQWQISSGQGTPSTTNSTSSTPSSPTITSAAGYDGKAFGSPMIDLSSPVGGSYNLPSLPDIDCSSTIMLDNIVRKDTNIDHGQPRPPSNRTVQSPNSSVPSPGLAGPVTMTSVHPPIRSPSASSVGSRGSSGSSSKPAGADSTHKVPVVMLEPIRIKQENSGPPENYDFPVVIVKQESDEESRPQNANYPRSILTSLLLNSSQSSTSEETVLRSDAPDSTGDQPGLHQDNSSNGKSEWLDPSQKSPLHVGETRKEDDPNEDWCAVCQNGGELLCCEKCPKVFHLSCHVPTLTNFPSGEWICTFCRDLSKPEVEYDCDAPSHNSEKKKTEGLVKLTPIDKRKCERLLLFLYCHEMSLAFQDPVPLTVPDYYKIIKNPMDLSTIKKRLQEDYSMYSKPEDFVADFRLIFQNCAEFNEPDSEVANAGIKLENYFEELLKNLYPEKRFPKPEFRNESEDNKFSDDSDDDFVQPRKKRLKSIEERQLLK

[2] = molecular target: T2, TRIM24 in HEK293T cells (human (HEK293T cells; endogenous or transfected not told)) (UniProt O15164); test: co-IP; HEK293T cells transfected with His-NRBP1 full-length or truncation plasmids; immunoprecipitation and western blot; which partner was precipitated is not told; a CK1 inhibitor (D4476, 6 h) is said to weaken the interaction of TRIM24 and NRBP1 in HEK293T
T2 sequence: T1 sequence

[3] = molecular target: NRBP1 (nuclear receptor binding protein 1) (human (endogenous in MKN74 and NUGC3)) (UniProt Q9UHY1); test: co-IP; endogenous proteins; MKN74 and NUGC3 cell lysates incubated overnight at 4 °C with anti-TRIM24 or anti-NRBP1 antibody or control IgG, then 2 h with protein A/G magnetic beads; immunoblot

binding [1]: binds
Molecule: NRBP1 (nuclear receptor binding protein 1) (from UniProt Q9UHY1 1-535)

binding [2]: no binding
Molecule: NRBP1(1-67) (from UniProt Q9UHY1 1-67) (domain or fragment)

binding [2]: no binding
Molecule: NRBP1(1-327) (from UniProt Q9UHY1 1-327) (domain or fragment)

binding [2]: binds
Molecule: NRBP1(327-443) (from UniProt Q9UHY1 327-443) (domain or fragment)

binding [2]: binds
Molecule: full-length NRBP1 (His-NRBP1) (from UniProt Q9UHY1 1-535)

binding [3]: binds
B1: TRIM24 (Tripartite motif-containing 24) (protein, UniProt O15164 1-1050)
chain: T1 sequence
